Paper PMC9911399, “Two distinct binding modes provide the RNA-binding protein RbFox with extraordinary sequence specificity”
Changes are numbered by the printed parent chain; changes in the protein carry UniProt numbers. The list shows a part of the results.

T1: RBFOX1 RRM (Homo sapiens, UniProt Q9NWB1 109-208)
T1 sequence: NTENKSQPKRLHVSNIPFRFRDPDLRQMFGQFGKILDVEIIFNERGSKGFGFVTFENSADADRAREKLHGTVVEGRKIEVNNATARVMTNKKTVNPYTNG

B1: GUCCGCA (DNA:RNA)
RNA: GGGAGACCGGAAUUCAGAUUGUCCGUCCGCAUUAAAUCCCGUCGUAGCCACCA
DNA 1: CAATCTGAATTCCGGTCTCCC
DNA 2: TGGTGGCTACGACGGGATT
B2: UAAAUGU (DNA:RNA)
RNA: GGGAGACCGGAAUUCAGAUUGUCCUAAAUGUUUAAAUCCCGUCGUAGCCACCA
DNA 1: CAATCTGAATTCCGGTCTCCC
DNA 2: TGGTGGCTACGACGGGATT
B3: GUCCGGC (DNA:RNA)
RNA: B1 RNA with C30G, A31C
DNA 1: CAATCTGAATTCCGGTCTCCC
DNA 2: TGGTGGCTACGACGGGATT
B4: ACCAAGC (DNA:RNA)
RNA: B2 RNA with U25A, A26C, A27C, U29A, U31C
DNA 1: CAATCTGAATTCCGGTCTCCC
DNA 2: TGGTGGCTACGACGGGATT
B5: ACGGGAU (DNA:RNA)
RNA: B1 RNA with G25A, U26C, C27G, C28G, C30A, A31U
DNA 1: CAATCTGAATTCCGGTCTCCC
DNA 2: TGGTGGCTACGACGGGATT
B6: CAAAGGU (DNA:RNA)
RNA: B2 RNA with U25C, U29G
DNA 1: CAATCTGAATTCCGGTCTCCC
DNA 2: TGGTGGCTACGACGGGATT
B7: CGCAAGC (DNA:RNA)
RNA: B2 RNA with U25C, A26G, A27C, U29A, U31C
DNA 1: CAATCTGAATTCCGGTCTCCC
DNA 2: TGGTGGCTACGACGGGATT
B8: ACCAGCA (DNA:RNA)
RNA: B1 RNA with G25A, U26C, C28A
DNA 1: CAATCTGAATTCCGGTCTCCC
DNA 2: TGGTGGCTACGACGGGATT
B9: UGGAUCG (DNA:RNA)
RNA: B2 RNA with A26G, A27G, G30C, U31G
DNA 1: CAATCTGAATTCCGGTCTCCC
DNA 2: TGGTGGCTACGACGGGATT
B10: CGAUAAC (DNA:RNA)
RNA: B2 RNA with U25C, A26G, A28U, U29A, G30A, U31C
DNA 1: CAATCTGAATTCCGGTCTCCC
DNA 2: TGGTGGCTACGACGGGATT
B11: AUCGCCC (DNA:RNA)
RNA: B1 RNA with G25A, C28G, G29C, A31C
DNA 1: CAATCTGAATTCCGGTCTCCC
DNA 2: TGGTGGCTACGACGGGATT
B12: CUCCAGC (DNA:RNA)
RNA: B1 RNA with G25C, G29A, C30G, A31C
DNA 1: CAATCTGAATTCCGGTCTCCC
DNA 2: TGGTGGCTACGACGGGATT
B13: UGGUCUA (DNA:RNA)
RNA: B1 RNA with G25U, U26G, C27G, C28U, G29C, C30U
DNA 1: CAATCTGAATTCCGGTCTCCC
DNA 2: TGGTGGCTACGACGGGATT
B14: AGAGACU (DNA:RNA)
RNA: B2 RNA with U25A, A26G, A28G, U29A, G30C
DNA 1: CAATCTGAATTCCGGTCTCCC
DNA 2: TGGTGGCTACGACGGGATT
B15: CCAACAA (DNA:RNA)
RNA: B2 RNA with U25C, A26C, U29C, G30A, U31A
DNA 1: CAATCTGAATTCCGGTCTCCC
DNA 2: TGGTGGCTACGACGGGATT
B16: AUACUCC (DNA:RNA)
RNA: B1 RNA with G25A, C27A, G29U, A31C
DNA 1: CAATCTGAATTCCGGTCTCCC
DNA 2: TGGTGGCTACGACGGGATT
B17: CCCUAUA (DNA:RNA)
RNA: B1 RNA with G25C, U26C, C28U, G29A, C30U
DNA 1: CAATCTGAATTCCGGTCTCCC
DNA 2: TGGTGGCTACGACGGGATT
B18: UCUGGGG (DNA:RNA)
RNA: B2 RNA with A26C, A27U, A28G, U29G, U31G
DNA 1: CAATCTGAATTCCGGTCTCCC
DNA 2: TGGTGGCTACGACGGGATT
B19: GUAGGAA (DNA:RNA)
RNA: B1 RNA with C27A, C28G, C30A
DNA 1: CAATCTGAATTCCGGTCTCCC
DNA 2: TGGTGGCTACGACGGGATT
B20: CACUCUU (DNA:RNA)
RNA: B2 RNA with U25C, A27C, A28U, U29C, G30U
DNA 1: CAATCTGAATTCCGGTCTCCC
DNA 2: TGGTGGCTACGACGGGATT
B21: CAGAUUC (DNA:RNA)
RNA: B2 RNA with U25C, A27G, G30U, U31C
DNA 1: CAATCTGAATTCCGGTCTCCC
DNA 2: TGGTGGCTACGACGGGATT
B22: GACUACC (DNA:RNA)
RNA: B1 RNA with U26A, C28U, G29A, A31C
DNA 1: CAATCTGAATTCCGGTCTCCC
DNA 2: TGGTGGCTACGACGGGATT
B23: CCGCCGC (DNA:RNA)
RNA: B1 RNA with G25C, U26C, C27G, G29C, C30G, A31C
DNA 1: CAATCTGAATTCCGGTCTCCC
DNA 2: TGGTGGCTACGACGGGATT
B24: AGGGCGC (DNA:RNA)
RNA: B2 RNA with U25A, A26G, A27G, A28G, U29C, U31C
DNA 1: CAATCTGAATTCCGGTCTCCC
DNA 2: TGGTGGCTACGACGGGATT
B25: UCUAUUU (DNA:RNA)
RNA: B2 RNA with A26C, A27U, G30U
DNA 1: CAATCTGAATTCCGGTCTCCC
DNA 2: TGGTGGCTACGACGGGATT
B26: CACUCAG (DNA:RNA)
RNA: B1 RNA with G25C, U26A, C28U, G29C, C30A, A31G
DNA 1: CAATCTGAATTCCGGTCTCCC
DNA 2: TGGTGGCTACGACGGGATT
B27: AACUAGA (DNA:RNA)
RNA: B1 RNA with G25A, U26A, C28U, G29A, C30G
DNA 1: CAATCTGAATTCCGGTCTCCC
DNA 2: TGGTGGCTACGACGGGATT
B28: AUCGUGU (DNA:RNA)
RNA: B2 RNA with U25A, A26U, A27C, A28G
DNA 1: CAATCTGAATTCCGGTCTCCC
DNA 2: TGGTGGCTACGACGGGATT
B29: CCAACUA (DNA:RNA)
RNA: B2 RNA with U25C, A26C, U29C, G30U, U31A
DNA 1: CAATCTGAATTCCGGTCTCCC
DNA 2: TGGTGGCTACGACGGGATT
B30: GUGAGUU (DNA:RNA)
RNA: B1 RNA with C27G, C28A, C30U, A31U
DNA 1: CAATCTGAATTCCGGTCTCCC
DNA 2: TGGTGGCTACGACGGGATT
B31: AGUACUU (DNA:RNA)
RNA: B2 RNA with U25A, A26G, A27U, U29C, G30U
DNA 1: CAATCTGAATTCCGGTCTCCC
DNA 2: TGGTGGCTACGACGGGATT

molecular target: T1, RBFOX1 RRM; test: EMSA; HiTS-Eq, 1 nM pool, 10 min; buffer printed only for the single-RNA assays: 10 mM Tris pH 7.5, 150 mM NaCl, 3.4 mM EDTA, 0.001% NP-40, 30 C; details: tags: His6 N-terminal (pET28a); label: 5' 32P
How it was run: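 Relative association constants, normalised to the cognate motif, were derived by comparing read counts of each RNA species with those of the control reaction. The RNA sequenced was the free fraction, separated by 8% native PAGE after a 10 min equilibration in 50 µL of 1 nM 5′-radiolabelled RNA (7 randomized nucleotides) with increasing concentrations of purified wild-type or mutant RbFox RRM.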

Binder | binding signal
B1 | 0.0155 KA relative to UGCAUGU
B2 | 0.0123 KA relative to UGCAUGU
B3 | 0.00575 KA relative to UGCAUGU
B4 | 0.00138 KA relative to UGCAUGU
B5 | 0.0307 KA relative to UGCAUGU
B6 | 0.00342 KA relative to UGCAUGU
B7 | 0.0159 KA relative to UGCAUGU
B8 | 0.0049 KA relative to UGCAUGU
B9 | 0.0333 KA relative to UGCAUGU
B10 | 0.00157 KA relative to UGCAUGU
B11 | 0.00323 KA relative to UGCAUGU
B12 | 0.00568 KA relative to UGCAUGU
B13 | 0.0102 KA relative to UGCAUGU
B14 | 0.00429 KA relative to UGCAUGU
B15 | 0.00206 KA relative to UGCAUGU
B16 | 0.000718 KA relative to UGCAUGU

Binder | binding signal
B17 | 0.0049 KA relative to UGCAUGU
B18 | 0.00717 KA relative to UGCAUGU
B19 | 0.00484 KA relative to UGCAUGU
B20 | 0.00351 KA relative to UGCAUGU
B21 | 0.00642 KA relative to UGCAUGU
B22 | 0.00582 KA relative to UGCAUGU
B23 | 0.00251 KA relative to UGCAUGU
B24 | 0.0254 KA relative to UGCAUGU
B25 | 0.00867 KA relative to UGCAUGU
B26 | 0.00533 KA relative to UGCAUGU
B27 | 0.00203 KA relative to UGCAUGU
B28 | 0.0122 KA relative to UGCAUGU
B29 | 0.00394 KA relative to UGCAUGU
B30 | 0.0159 KA relative to UGCAUGU
B31 | 0.00806 KA relative to UGCAUGU
